Sequences and labels used below:
B1: SLC35B3, Q9H1N7 (protein)
chain: MDLTQQAKDIQNITVQETNKNNSESIECSKITMDLKFNNSRKYISITVPSKTQTMSPHIKSVDDVVVLGMNLSKFNKLTQFFICVAGVFVFYLIYGYLQELIFSVEGFKSCGWYLTLVQFAFYSIFGLIELQLIQDKRRRIPGKTYMIIAFLTVGTMGLSNTSLGYLNYPTQVIFKCCKLIPVMLGGVFIQGKRYNVADVSAAICMSLGLIWFTLADSTTAPNFNLTGVVLISLALCADAVIGNVQEKAMKLHNASNSEMVLYSYSIGFVYILLGLTCTSGLGPAVTFCAKNPVRTYGYAFLFSLTGYFGISFVLALIKIFGALIAVTVTTGRKAMTIVLSFIFFAKPFTFQYVWSGLLVVLGIFLNVYSKNMDKIRLPSLYDLINKSVEARKSRTLAQTV
B2: CACNG3, O60359 (protein)
chain: MRMCDRGIQMLITTVGAFAAFSLMTIAVGTDYWLYSRGVCRTKSTSDNETSRKNEEVMTHSGLWRTCCLEGAFRGVCKKIDHFPEDADYEQDTAEYLLRAVRASSVFPILSVTLLFFGGLCVAASEFHRSRHNVILSAGIFFVSAGLSNIIGIIVYISANAGDPGQRDSKKSYSYGWSFYFGAFSFIIAEIVGVVAVHIYIEKHQQLRAKSHSEFLKKSTFARLPPYRYRFRRRSSSRSTEPRSRDLSPISKGFHTIPSTDISMFTLSRDPSKITMGTLLNSDRDHAFLQFHNSTPKEFKESLHNNPANRRTTPV
B3: FTSJ2, Q9UI43 (protein)
chain: MAGYLKLVCVSFQRQGFHTVGSRCKNRTGAEHLWLTRHLRDPFVKAAKVESYRCRSAFKLLEVNERHQILRPGLRVLDCGAAPGAWSQVAVQKVNAAGTDPSSPVGFVLGVDLLHIFPLEGATFLCPADVTDPRTSQRILEVLPGRRADVILSDMAPNATGFRDLDHDRLISLCLTLLSVTPDILQPGGTFLCKTWAGSQSRRLQRRLTEEFQNVRIIKPEASRKESSEVYFLATQYHGRKGTVKQ
B4: GABRD, O14764 (protein)
chain: MDAPARLLAPLLLLCAQQLRGTRAMNDIGDYVGSNLEISWLPNLDGLIAGYARNFRPGIGGPPVNVALALEVASIDHISEANMEYTMTVFLHQSWRDSRLSYNHTNETLGLDSRFVDKLWLPDTFIVNAKSAWFHDVTVENKLIRLQPDGVILYSIRITSTVACDMDLAKYPMDEQECMLDLESYGYSSEDIVYYWSESQEHIHGLDKLQLAQFTITSYRFTTELMNFKSAGQFPRLSLHFHLRRNRGVYIIQSYMPSVLLVAMSWVSFWISQAAVPARVSLGITTVLTMTTLMVSARSSLPRASAIKALDVYFWICYVFVFAALVEYAFAHFNADYRKKQKAKVKVSRPRAEMDVRNAIVLFSLSAAGVTQELAISRRQRRVPGNLMGSYRSVGVETGETKKEGAARSGGQGGIRARLRPIDADTIDIYARAVFPAAFAAVNVIYWAAYAM
B5: ABCF2, Q9UG63 (protein)
chain: MPSDLAKKKAAKKKEAAKARQRPRKGHEENGDVVTEPQVAEKNEANGRETTEVDLLTKELEDFEMKKAAARAVTGVLASHPNSTDVHIINLSLTFHGQELLSDTKLELNSGRRYGLIGLNGIGKSMLLSAIGKREVPIPEHIDIYHLTREMPPSDKTPLHCVMEVDTERAMLEKEAERLAHEDAECEKLMELYERLEELDADKAEMRASRILHGLGFTPAMQRKKLKDFSGGWRMRVALARALFIRPFMLLLDEPTNHLDLDACVWLEEELKTFKRILVLVSHSQDFLNGVCTNIIHMHNKKLKYYTGNYDQYVKTRLELEENQMKRFHWEQDQIAHMKNYIARFGHGSAKLARQAQSKEKTLQKMMASGLTERVVSDKTLSFYFPPCGKIPPPVIMVQNVSFKYTKDGPCIYNNLEFGIDLDTRVALVGPNGAGKSTLLKLLTGELLPTDGMIRKHSHVKIGRYHQHLQEQLDLDLSPLEYMMKCYPEIKEKEEMRKIIGRYGLTGKQQVSPIRNLSDGQKCRVCLAWLAWQNPHMLFLDEPTNHLDIETIDALADAINEFEGGMMLVSHDFRLIQQVAQEIWVCEKQTITKWPGDILAYKEHLKSKLVDEEPQLTKRTHNV

Some of the results follow. Interaction screen of human proteins with wild-type SARS-CoV-2 proteins by split-DHFR complementation in yeast, 1 µg/mL methotrexate. Value = fitness of the pair (three or more lineages) minus that of the viral protein without a human partner, on a scale set by negative (0) and fused positive (1) controls, mean of up to three cultures; higher = more likely to interact. Active = false discovery rate below 0.05 (one-sided t-test) in at least one culture. Nearly all pairs are not hits, and differences among them are mostly noise (correlation between cultures about 0.3); most hits were seen in one culture only. Human sequences are the Swiss-Prot entries looked up by gene name; the clone may be another isoform. NSP2 values were corrected by the authors for a growth advantage. Listed are human proteins with a hit and a random twelfth of the others.

The first test addresses SARS-CoV-2 M. Briefly: yeast fitness gain over the viral ORF with no human partner (scaled fitness); higher = more likely to interact. As to the method: (§1)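 Split mouse DHFR complementation in pooled diploid yeast: human ORFeome clones carry one fragment and viral ORFs the other; barcoded lineages compete in 1 µg/mL methotrexate and fitness is read by barcode sequencing in up to three cultures.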
On to B1, for which the yeast fitness gain is inactive: 0.0376.
Still for that read-out and setting: in the case of B2 it was inactive: 0.0245; in that of B3, inactive: 0.0191.
The same measure, in the same setting: in the case of B4 it was inactive: -0.000176; in that of B5, inactive: 0.13.

The target in another test is SARS-CoV-2 NSP10. Described as above. Here is the method:
as §1
Take B1: the yeast fitness gain was inactive: 0.0341.
In the case of B3, the yeast fitness gain was inactive: -0.0744.
Still for that read-out and setting: as for B4, the figure is inactive: 0.0382.
Same read-out and setting: as for B5, the figure is inactive: 0.0374.

The target in a further test is SARS-CoV-2 NSP12. The description is as above. Here is the method: as §1
On to B1, for which the yeast fitness gain is inactive: 0.00933.
Take B2: the yeast fitness gain was inactive: 0.117.
On to B3, for which the yeast fitness gain is inactive: -0.0423.
For B4, the yeast fitness gain is inactive: -0.017.
B5: the yeast fitness gain is inactive: -0.0634.

Another test addresses SARS-CoV-2 NSP13. The test is described as above. Here is the method: as §1
In the case of B1, the yeast fitness gain is inactive: -0.0919.
Take B2: the yeast fitness gain is inactive: -0.0149.
Still for that read-out and setting: as for B3, the figure is inactive: -0.137; as for B4, inactive: -0.062; as for B5, inactive: 0.0411.

The target of the next test is SARS-CoV-2 NSP2. The description is as above. Here is the method:
as §1
As to B1, the yeast fitness gain is inactive: -0.0969.
On the same count and under the same terms, as for B2, the figure is inactive: -0.166; as for B4, inactive: -0.0264; as for B5, inactive: -0.115.

For another test, the target named is SARS-CoV-2 NSP5. The test is described as above. As to the method: as §1
Regarding B1, the yeast fitness gain was inactive: -0.047.
The same measure, in the same setting: in the case of B2 it was inactive: -0.0358; in that of B3, inactive: -0.00545; in that of B4, inactive: 0.0139.

For a further test, the target named is SARS-CoV-2 NSP6. Described as above. As to the method: as §1
For the molecule B1, the yeast fitness gain was inactive: -0.0709.
Take B3: the yeast fitness gain is inactive: 0.0152.
Regarding B4, the yeast fitness gain was inactive: -0.0388.

Another test concerns the target SARS-CoV-2 NSP7. The test is described as above. As to the method: as §1
As for B1, the yeast fitness gain is inactive: -0.0643.
On the same count and under the same terms, as for B2, the figure is inactive: 0.0315; as for B3, inactive: 0.0917.
The same measure, in the same setting: in the case of B4 it was inactive: -0.0262.
On the same count and under the same terms, in the case of B5 it was inactive: -0.0856.

In the next test the target is SARS-CoV-2 NSP8. Described as above. Here is the method: as §1
For the molecule B1, the yeast fitness gain was inactive: -0.0843.
Still for that read-out and setting: as for B3, the figure is inactive: 0.00569.
Still for that read-out and setting: as for B4, the figure is inactive: -0.0637.

The target of another test is SARS-CoV-2 NSP9. The test is described as above. Here is the method:
as §1
Consider B1, for which the yeast fitness gain is inactive: 0.0731.
As to B3, the yeast fitness gain is inactive: 0.145.
Still for that read-out and setting: as for B4, the figure is inactive: 0.0304; as for B5, inactive: 0.0655.

For the next test, the target named is SARS-CoV-2 ORF10. The test is described as above. Here is the method:
as §1
As to B1, the yeast fitness gain was inactive: 0.00907.
Same read-out and setting: in the case of B4 it was inactive: -0.0504; in that of B5, inactive: -0.0321.

In a further test the target is SARS-CoV-2 ORF3B. The test is described as above. As to the method: as §1
Take B1: the yeast fitness gain is inactive: 0.187.
For the molecule B2, the yeast fitness gain is inactive: 0.0851.
Same read-out and setting: in the case of B3 it was inactive: -0.0439; in that of B4, inactive: -0.0163.
On the same count and under the same terms, as for B5, the figure is inactive: 0.00593.

The target of a further test is SARS-CoV-2 ORF6. Described as above. As to the method: as §1
Consider B1, for which the yeast fitness gain was inactive: -0.0628.
Same read-out and setting: in the case of B2 it was inactive: -0.0702; in that of B3, inactive: -0.142.
On the same count and under the same terms, in the case of B4 it was inactive: 0.0699; in that of B5, inactive: 0.0215.

A further test concerns the target SARS-CoV-2 ORF7A. The test is described as above. Here is the method:
as §1
As for B1, the yeast fitness gain was inactive: -0.0289.
Same read-out and setting: as for B3, the figure is inactive: -0.0758; as for B4, inactive: 0.0572; as for B5, inactive: -0.0124.

The target in a further test is SARS-CoV-2 ORF7B. The description is as above. As to the method:
as §1
Turning to B1, the yeast fitness gain is inactive: 0.0132.
Still for that read-out and setting: as for B3, the figure is inactive: -0.0547.
Take B4: the yeast fitness gain was inactive: 0.0107.
For the molecule B5, the yeast fitness gain is inactive: -0.0011.

In the next test the target is SARS-CoV-2 ORF8. Described as above. As to the method:
as §1
As for B1, the yeast fitness gain was inactive: 0.0523.
Still for that read-out and setting: as for B2, the figure is inactive: -0.0136; as for B3, inactive: 0.0355.
Regarding B4, the yeast fitness gain was inactive: 0.0231.
The same measure, in the same setting: as for B5, the figure is inactive: -0.134.

In another test the target is SARS-CoV-2 ORF9B. The description is as above. Here is the method:
as §1
In the case of B1, the yeast fitness gain was inactive: 0.00701.
Take B2: the yeast fitness gain was inactive: -0.0331.
In the case of B3, the yeast fitness gain was inactive: 0.0124.
Same read-out and setting: in the case of B4 it was inactive: -0.0511.
On the same count and under the same terms, in the case of B5 it was inactive: 0.0549.

For the next test, the target named is SARS-CoV-2 ORF9Bwu (the 73-codon ORF). The description is as above. Here is the method: as §1
Take B1: the yeast fitness gain was inactive: 0.00499.
As to B3, the yeast fitness gain is inactive: 0.0165.
As to B4, the yeast fitness gain is inactive: -0.0627.

Another test concerns the target SARS-CoV-2 S. The description is as above. Here is the method: as §1
Turning to B1, the yeast fitness gain is inactive: -0.0317.
The same measure, in the same setting: as for B2, the figure is inactive: 0.0505; as for B3, inactive: -0.0899; as for B4, inactive: 0.0927.
On the same count and under the same terms, in the case of B5 it was inactive: -0.067.

In a further test the target is SARS-CoV-2 NSP15. The description is as above. Here is the method: as §1
In the case of B3, the yeast fitness gain is inactive: 0.00911.
On the same count and under the same terms, in the case of B4 it was inactive: -0.0669.
On the same count and under the same terms, in the case of B5 it was inactive: -0.0185.

The next test addresses SARS-CoV-2 N. Described as above. As to the method: as §1
Take B4: the yeast fitness gain was inactive: 0.0536.

The target of the next test is SARS-CoV-2 ORF3A. The test is described as above. Here is the method: as §1
As to B4, the yeast fitness gain was inactive: -0.0394.
Take B5: the yeast fitness gain was inactive: -0.0329.

The target of a further test is SARS-CoV-2 NSP1. The test is described as above. Here is the method: as §1
Take B5: the yeast fitness gain is inactive: 0.114.

In the next test the target is SARS-CoV-2 NSP16. Described as above. Here is the method: as §1
As for B5, the yeast fitness gain was inactive: -0.0249.

The values above are taken from the supplement of paper PMC11741623.
